# This is one part of the list.
# System: PfHDP1 homeodomain (GST-tagged)
# Experiment: gcPBM binding intensity (ln(normalized median fluorescence intensity)); higher = stronger DNA binding
# Procedure, shortened: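 Binding intensity values are the highest Masliner-normalised natural-log median intensity among replicate spots of either probe orientation. The binding step lasted 1 h in 1× PBS with 1% milk, 0.2 mg/ml BSA, 0.5% salmon testes DNA and 0.03% Triton X-100, using GST-tagged P. falciparum DNA-binding domains expressed in E. coli on an Agilent 4 × 180k array of primer-extended double-stranded 36-bp intergenic genomic probes plus negative controls. Alexa488 anti-GST antibody and a 488 nm scan detected bound protein.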
row,Sequence,gcPBM binding intensity (ln)
1,AAAATAAACTATAGTACACACTTATTATTATGAAAT [CACACA_site5488],6.57
2,AAAATATGTAGCTACACACACATAAACAAAATAACA [CACACA_site1007],6.79
3,AACATTTTAAATTATACACACATTTTGAATATATAT [CACACA_site3470],6.77
4,TATACACCCAGACACACACACACACCCAAAAAAAAA [CACACA_site497],6.7
5,TGTTGTTGTAATTATTGTACGTTATGCGATTATTAT [XGTACX_site7005],6.8
6,ATATAATTATAAAATAAACACACATATATATTTATA [CACACA_site8039],6.41
7,TAATGTTACACAAACTTTTCATTCTTTTTAATAAAT [TGCATGCA_negctrl_site331],6.43
8,ATATATATATATATATGTACATAGAGAAGTATCTTT [XGTACX_site4737],9.44
9,TTATTTATTTATAATTGTACATTGCAAATGAATTTA [XGTACX_site4083],6.41
10,ATGAACATATTTTTTTGTACTTATGAAAATATGTTA [XGTACX_site5996],6.25
11,TAGTAGTTATCATTAACATGCAATAATATTATTTAA [TGCATGCA_site178],6.46
12,AAAAAAAAAAAAAAAAGTACTCTATAAGTAACATTT [XGTACX_site6973],6.51
13,ATTTTTTTGTTATTGTTGAAAAGATGGTTCTTTTTT [CACACA_negctrl_site1346],6.59
14,AATTTCTTATTTTGTACACACAATAAATATTCACAT [CACACA_site1612],6.83
15,GAAAACAAAATGGTAACACACAAATGTAAATAGTAT [CACACA_site2113],6.72
16,AAAATAAATAAATACACACACACGAATATTTATATA [CACACA_site6892],6.77
17,ATTATTTCAATTTTTTTTGTTTTTAAAAAAAAAAAT [CACACA_negctrl_site1387],6.05
18,ATTATAAAAATATCGTGTACATATTTTTTAAAATAA [XGTACX_site5072],6.11
19,AAAAAAAAAAAAAAAAGTACACATCATTTTATGAAA [XGTACX_site1402],6.41
20,TAGTATAATATGAACACACACACACCCACAAAAAAA [CACACA_site2009],7.09
21,CAAAAAATATATTTTTGTACTTATGTTTTTATTTTG [XGTACX_site5230],6.54
22,TTATAATATAAAAAATGTACATTAAAAAAAAAGATT [XGTACX_site8950],7.02

row,Sequence,gcPBM binding intensity (ln)
1,AAGTATCAAAAATAAAGTACATATTTTGTAGGCAGG [XGTACX_site1463],6.76
2,TTTTTATTTTTTAGTAGTACACACTTTTTGAACCTT [XGTACX_site1091],6.75
3,TTTTTTTTTTTCCTTACACACATATTTCATTTTATA [CACACA_site747],6.63
4,TTTTATATATATTATACACACAAGGAAAAAAAAAAA [CACACA_site3677],6.75
5,AAAAAAAAAAAAAGTGCACACTTTTAATATAAATAT [CACACA_site3314],8.41
6,TATAAAAGGAAACACACACACATATATATATATATA [CACACA_site939],9.41
7,TGGATATATGTAAAAATTGCAAGAAAGATAAAAGGA [CACACA_negctrl_site64],8.18
8,TCTATGAATTAATATGCATGTAACGTATTTATACTT [TGCATGCA_site669],6.47
9,ATTATGATATATATATGTACATATATATAATATAAT [XGTACX_site259],6.55
10,TTGAAGTATAATAAAGTGCAAAATTATAATGATCTT [GTGCAC_site9639],9.12
11,TGTTGGTATGTGAATGCATGCATATAAGTCTATCTG [TGCATGCA_site780],6.91
12,GTTAATTTTTGTATAGTGCAAAAATATAATAGTATG,9.54
13,AAATGGGAAATTTCATGTACTCATTTACCCTTATTA [XGTACX_site4740],5.89
14,ATCTGACAAAAGTGTACACATATATATATATATATA [CACACA_site4814],9.45
15,CACATAATGAAAAATACACACATGTATATTTATAAA [CACACA_site2736],6.45
16,AAAAGATAAAATTATGCACACATACGAATAATTTTA [CACACA_site8497],10.1
17,TATTTCACACAGTATATATATATATATATATATATA [TGCATGCA_negctrl_site118],9.44
18,AAGGGAAAAAAAAAAGCACACATACGTAAATATATA [CACACA_site7960],6.56
19,TACTAAGAAAAGAACTGTACATAGAATATACCCAAG [XGTACX_site4757],6.13
20,AATATCAAAAAAAAAAAAAAAAAAAAAAAAAAAAAA [CACACA_negctrl_site288],6.12
21,AATATATTAAATATTACACACATACATTTAGTGGAA [CACACA_site8609],6.71
22,AGATATATATATAGGTGTACTGGAATGAAATTGTTT [XGTACX_site8200],6.67

row,Sequence,gcPBM binding intensity (ln)
1,ATGATAATTATTAAGGGTACATAAAAATATATCTAT [XGTACX_site8969],6.36
2,ATTATTTAACATGTGGACACAAAAATTTAAGGGTTC [CACACA_negctrl_site1269],6.63
3,TATAATTATTTTTTCACACATATGTATTTATATATA [CACACA_site4205],7.05
4,TACTAAATGATCATATGTACACATGTTTACTTTTTA [XGTACX_site1253],7.67
5,AATATATATATATATATATATATTTCAATATATAAA [XGTACX_negctrl_site187],7.08
6,ATACATATACACATTTGTACATATTCCTTTTTATCG [XGTACX_site1731],6.86
7,TTATTTAAAATGAAAAGTACATATTACTTTCTCACA [XGTACX_site5043],6.47
8,TCTTGTTTTAATTTTTATATTATTATTTAGATATAT [CACACA_negctrl_site921],6.63
9,TAGTATTATTTTTTTTGTACATATAAATGTAAAATA [XGTACX_site5282],6.12
10,AAAACATAAATACATACACACATAATATATATTAAG [CACACA_site4239],6.75
11,TTTTTTTAAAATATGAGTACATAATATTGTAAAAAT [XGTACX_site6536],6.56
12,TTAATATATAATAAATTTTTTTTTTTTTTTTTTTTT [CACACA_negctrl_site892],6.61
13,ATATATTAATATGTGTGTACTTAACCATTCATATGT [XGTACX_site7395],6.57
14,TATATAAATATATAATGTACGTTTTAAAAATAATAT [XGTACX_site3881],7.1
15,TTAATATGAAAACTCTGTACCCAACCTTCTTATGGA [XGTACX_site2126],6.01
16,CTTGGTAGTTTTTTCTTATAATCTAATTATTAATAA [CACACA_negctrl_site153],6.54
17,TTAACCACTAAAAGTACACACATATATACCTATATA [CACACA_site6026],6.44
18,TTTTAATAATATGGATGTACATAAAAATAAATAAAT [XGTACX_site7937],6.92
19,ATATAATAAATGTAGGTGCATAAAAATATTTTGTTA [GTGCAC_site9780],9.6
20,TACACAAATATATACATACACACATATATACGCATA [CACACA_site394],6.82
21,TAATATTGACTATATACACACATATATATATATATA [CACACA_site575],9.41
22,CAGACATATTAAAAGAGTACATATATATATATATAT [XGTACX_site1158],9.32

row,Sequence,gcPBM binding intensity (ln)
1,TGTTTATTACTCAGGTGTACTCAATTTTTTTTTTTT [XGTACX_site3470],6.72
2,AAAAAAAAAAAAGAACGTACAAATTAATTTATAGAA [XGTACX_site5584],6.57
3,TATTTACAAAAAAAATATAAAAAATATAAAATATAT [CACACA_negctrl_site575],6.13
4,AATATTAAAATAAAAAGTACTTATTTATGTATGTTG [XGTACX_site2682],6.41
5,TGTATAATATTTGGTGCACACAAATTAACAACTGTT [CACACA_site9245],10.6
6,TTTATATAACAACAAAATGGAAATATATATGTATGT [TGCATGCA_negctrl_site98],6.7
7,ATAAAAAAAAAAAAAAGTACACATATAAAAGTATTG [XGTACX_site8265],6.39
8,TAAATAATATCTATCACACACGCATAAATACAGATA [CACACA_site5449],6.55
9,ATTTATTTTATTTTCACACACAAAAATAAATATCCG [CACACA_site2414],6.61
10,AAATTTATGTGTGCCTGTACATATCAAAGATTTAAG [XGTACX_site8547],6.36
11,CGCAATTAAAATATGTGTCCTCATTTTATAACATTT [XGTACX_site5340],6.41
12,ATTCTACCACGCGATATACACACTTGTAGACATCTT [CACACA_site188],6.92
13,TATAATGTATGTAGTGCACACCTCTATAATATATTA [CACACA_site8560],9.5
14,ATATATCTATAAAAGGCTTCCCACTTTTTTTGTCAA [TGCATGCA_negctrl_site332],6.39
15,ATAATAAAAAAAATTAGTACATATATAAATATAAAT [XGTACX_site1937],6.11
16,TAATTTCTTAGGTATTGTACAAATATTATATGATAT [XGTACX_site256],6.78
17,AGTACATTTTTGTGTGTGCACTAATATTATATACTT [GTGCAC_site9568],9.81
18,AATAAATAAAGAAGTACACACATATATATATATATA [CACACA_site4314],9.39
19,TATTTTTAAAATATAAGTAAAAAAATAATATAAACT [TGCATGCA_negctrl_site283],6.59
20,AAATGAATAAATAGGTCACACACAAATATATATAAA [CACACA_site8764],6.98
21,ATATATATATATATATGTACATATACATATGTGCAA [XGTACX_site5604],9.34
22,TATATTAAAAAAGAGGTGCATTCGTAAGAGGTTAAA [GTGCAC_site9720],8.15

# From the supplement of paper PMC11417369
